# Results from PubChem BioAssay AID588342 (National Center for Advancing Translational Sciences (NCATS), 2011).
# About 25,000 (6.9%) of roughly 360,000 compounds were called active. The shares of active, inactive and inconclusive entries below differ from those in the screen. Calls follow the shape of the dose curve; as a rule, active = well fitted inhibition curve with a large enough effect; inconclusive = small, poorly fitted or top-dose-only effect; inactive = flat fitted curve, though single readings scatter. Potencies of inconclusive entries are doubtful fits and often do not repeat.
# Biological target: Luciferin 4-monooxygenase (Photinus pyralis) (UniProt P08659)
# Experiment: qHTS profiling assay for firefly luciferase inhibitor/activator using purifed enzyme and Km concentrations of substrates (counterscreen for miR-21 project); also: nearly all actives have a fitted effect of over 55% in size
# Conditions: purified FLuc, luminescence inhibition; series mostly up to 57.5 µM
# Method in brief: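 Purified P. pyralis luciferase, 10 nM final, with Km-level 10 uM D-luciferin and 10 uM ATP in 50 mM Tris acetate pH 7.5, 10 mM Mg acetate, 0.01% Tween-20, 0.05% BSA; 6-point qHTS titration about 60 µM downward; luminescence read.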
# Potency is read from the fitted curve at half-maximal effect; tags tell the direction and shape of the fitted curve.
# UniProt P08659, sequence (P08659 whole entry, looked up): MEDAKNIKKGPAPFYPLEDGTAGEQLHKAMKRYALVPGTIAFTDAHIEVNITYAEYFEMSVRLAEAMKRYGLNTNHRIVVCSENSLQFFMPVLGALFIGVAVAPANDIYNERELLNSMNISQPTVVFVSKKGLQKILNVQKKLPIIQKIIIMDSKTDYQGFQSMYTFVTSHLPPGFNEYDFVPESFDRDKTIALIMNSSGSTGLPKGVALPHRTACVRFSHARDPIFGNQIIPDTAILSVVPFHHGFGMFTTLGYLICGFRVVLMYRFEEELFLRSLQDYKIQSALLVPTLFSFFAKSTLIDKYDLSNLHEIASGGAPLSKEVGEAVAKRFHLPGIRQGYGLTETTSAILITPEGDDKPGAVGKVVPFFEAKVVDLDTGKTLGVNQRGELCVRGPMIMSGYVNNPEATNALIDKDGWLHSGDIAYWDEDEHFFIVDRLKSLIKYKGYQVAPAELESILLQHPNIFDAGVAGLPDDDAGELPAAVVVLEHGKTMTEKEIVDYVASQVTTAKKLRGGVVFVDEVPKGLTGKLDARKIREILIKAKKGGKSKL
row,Structure (SMILES),Potency
1,Cc1ccc(CCC(=O)Nc2ccc(N(C)C)cc2)o1,"inconclusive: 16.9 µM [inhibitor, partial curve, poor fit]"
2,Cc1ccc(C(=O)Nc2sc(C)c(C)c2C(=O)c2ccccc2)cc1,"inconclusive: 23.9 µM [inhibitor, single point]"
3,COc1cc(C(=O)NC(=S)Nc2ccccc2[N+](=O)[O-])cc(OC)c1OC,inactive
4,O=C(CC(SCCO)c1ccc(F)cc1)c1ccco1 (stereo unspecified),"inconclusive: 16.9 µM [inhibitor, partial curve, poor fit]"
5,CCOc1ccc(-c2nn(CC(=O)NC3CCCC3)c3c2cnc2ccc(C)cc23)cc1,inactive
6,O=C(CC1SC(N2CCCCC2)=NC1=O)Nc1cccc(C(=O)O)c1 (stereo unspecified),"inconclusive: 21.3 µM [inhibitor, partial curve, poor fit]"
7,COC(=O)c1ccccc1NC(=O)N1c2ccccc2CC1C (stereo unspecified),"inconclusive: 16.9 µM [inhibitor, partial curve, poor fit]"
8,COCCN=C1Sc2nc3ccc(C)cc3cc2CN1Cc1ccco1,active: 10.7 µM
9,COc1ccc(-c2c(-c3cc(OC)cc(OC)c3)n(C)c3ccc(-c4ccc(S(N)(=O)=O)cc4)cc23)cc1,inactive
10,Cc1nn(CC(=O)N2CCC(C(N)=O)CC2)c(=O)c2nn(-c3ccccc3)c(C)c12,inactive
11,Cn1c(=O)n(C)c2cc(S(=O)(=O)Nc3ccc(F)cc3)ccc21,inactive
12,COc1ccccc1NC(=O)COC(=O)/C=C/c1ccccc1[N+](=O)[O-],"inconclusive: 23.9 µM [inhibitor, partial curve, poor fit]"
13,Cc1ccc(NC(=S)c2ccccc2)cc1,active: 4.78 µM
14,Cc1ccc(-c2ccc(C(=O)Nc3ccccc3)o2)c2ccccc12,"inconclusive: 21.3 µM [inhibitor, single point]"
15,COc1ccc(N2CC(C(=O)N3CCN(Cc4ccc5c(c4)OCO5)CC3)CC2=O)cc1 (stereo unspecified),inactive
16,Cc1cc(C)nc(SCc2ccc(C(=O)N/N=C/c3cccc(O)c3O)cc2)n1,"inconclusive: 37.9 µM [inhibitor, single point]"
17,COc1ccc(CNC(=O)Cn2ncc3c([nH]c4ccccc43)c2=O)cc1,inactive
18,Cc1cc2cc(CNC(=O)CC(C)C)ccc2n1C,inactive
19,Cc1ccc2nc(CCc3ccc(N)cc3)[nH]c2c1,active: 15.1 µM
20,O=C(OC1CCOC1=O)c1cc(-c2ccccc2)nc2ccccc12 (stereo unspecified),"inconclusive: 23.9 µM [inhibitor, partial curve, poor fit]"
21,COc1ccc(CNC(=O)c2ccc3oc(C(C)C)nc3c2)cc1,active: 15.1 µM
22,CCn1c(CNC(=O)c2ccc(OC)cc2)nnc1SCC(=O)Nc1ccc(C)cc1,inactive
23,CN1CCN(S(=O)(=O)c2ccc(NC(=O)c3ccc(Br)s3)cc2)CC1,inactive
24,O=C(Cn1cnc2cc([N+](=O)[O-])ccc2c1=O)Nc1cccc(S(=O)(=O)N2CCOCC2)c1,inactive
25,Oc1ccc(/C=N/NC(=S)N2CCOCC2)cc1,active: 7.57 µM
26,O=C(Nc1ccc(Cl)cc1)OCCn1nnnc1C(c1ccccc1)N1CCOCC1 (stereo unspecified),"inconclusive: 26.9 µM [inhibitor, partial curve, poor fit]"

row,Structure (SMILES),Potency
1,CN=Cc1nc(-c2ccccc2)oc1O,active: 16.9 µM
2,CCOC(=O)C(C)/C(C)=N/NC(=O)c1cc2ccccc2cc1O (stereo unspecified),"inconclusive: 26.9 µM [inhibitor, partial curve]"
3,CC(=O)c1ccc(NC(=O)c2ccc(-c3ccc(Cl)cc3)o2)cc1,"inconclusive: 26.9 µM [inhibitor, single point]"
4,COc1ccccc1NS(=O)(=O)c1ccc(C(=O)N2CCCC(C(F)(F)F)C2)cc1 (stereo unspecified),inactive
5,Oc1ccc(N=Cc2sc3ccccc3c2Cl)cc1,active: 5.36 µM
6,CCCCn1c(-c2csc(CCC)c2)n[nH]c1=S,"inconclusive: 37.9 µM [inhibitor, single point]"
7,Cc1ccccc1OCc1nc2c3cnn(C)c3ncn2n1,"inconclusive: 16.9 µM [inhibitor, partial curve]"
8,Cn1c(=O)cc(C(=O)N/N=C/c2ccc(F)cc2)[nH]c1=O,"inconclusive: 21.3 µM [inhibitor, partial curve]"
9,CSCCC(NC(=O)c1ccc([N+](=O)[O-])cc1Cl)C(=O)OCC(=O)NCCCc1ccccc1 (stereo unspecified),"inconclusive: 37.9 µM [inhibitor, partial curve, poor fit]"
10,Cn1nnc(NC(=O)COc2ccc(C3CCCCC3)cc2)n1,"inconclusive: 10.7 µM [inhibitor, partial curve, poor fit]"
11,Cc1ccn2c(NC(=O)c3ccccc3)c(-c3cccs3)nc2c1,inactive
12,O=C(Nc1ccc(F)cc1F)Nc1csc2ccccc12,"inconclusive: 30.1 µM [inhibitor, single point]"
13,COc1ccc(CNC(=O)CSc2nc(-c3ccc(OC)c(OC)c3)cc(C(F)(F)F)n2)cc1,inactive
14,O=C(CN1c2cccc3cccc(c23)S1(=O)=O)NCc1ccc2c(c1)OCO2,"inconclusive: 23.9 µM [inhibitor, partial curve, poor fit]"
15,N#C/C(=C\c1ccccc1)C(=O)Nc1cccnc1,"inconclusive: 37.9 µM [inhibitor, single point]"
16,Cc1ccc(SCc2cc(=O)n3ccsc3n2)c(C)c1,active: 15.1 µM
17,COCc1c(CCl)cnc(C)c1O,active: 16.9 µM
18,COc1ccccc1N1CCN(c2ccc(-c3ccccc3)nn2)CC1,active: 0.757 µM
19,COc1ccc(C2=NCC(CSc3nnnn3C)S2)cc1 (stereo unspecified),"inconclusive: 30.1 µM [inhibitor, partial curve, poor fit]"
20,CCC1(c2ccc(Cl)cc2)NC(=O)N(Cc2ccc(C(=O)OC)cc2)C1=O (stereo unspecified),inactive
21,Cc1c(Cl)cccc1Nc1ncccc1C(=O)O,"inconclusive: 30.1 µM [inhibitor, single point]"
22,Cc1ccc(-n2nc3c(c2NC(=O)C(C)(C)C)CSC3)c(C)c1,inactive
23,CCC(=O)N1CCN(c2ccc(NC(=O)c3ccco3)cc2Cl)CC1,inactive
24,Oc1cc(Nc2ccc(N3CCCCC3)cc2)cc2cccnc12,"inconclusive: 37.9 µM [inhibitor, single point]"
25,COc1ccc(C2=NOC(Cn3nc(C(=O)NCc4cccc(C(F)(F)F)c4)cc3-c3ccccc3)C2)cc1 (stereo unspecified),inactive
26,CN(C(=O)COC(=O)c1cccnc1Nc1ccccc1F)C1CCS(=O)(=O)C1 (stereo unspecified),inactive

row,Structure (SMILES),Potency
1,COc1ccc(-c2cc3ccccc3cn2)cc1,active: 0.849 µM
2,Cc1ccc(C(=O)NN2C(=O)/C(=C/c3cn(C)c4ccccc34)SC2=S)cc1,"inconclusive: 13.5 µM [inhibitor, partial curve, poor fit]"
3,O=C(CN1C(=O)NC(c2ccccc2)(c2ccccc2)C1=O)c1c[nH]c2ccccc12,"inconclusive: 23.9 µM [inhibitor, single point]"
4,Cc1ccc(/C(N)=N/OC(=O)c2cccc(Cn3cc(C(F)(F)F)ccc3=O)c2)cc1,active: 21.3 µM
5,COc1cc(-c2nnc(NC(=O)c3ccco3)o2)cc(OC)c1OC,inactive
6,CCC(=O)Nc1nnc(-c2ccc(OC)cc2)o1,active: 23.9 µM
7,Cc1cc(N/N=C/c2ccc(Cl)cc2Cl)nc(NCc2ccccc2)n1,"inconclusive: 26.9 µM [inhibitor, partial curve, poor fit]"
8,C/C(=N\NC(=O)c1cc2ccccc2cc1O)c1ccc2c(c1)OCO2,active: 9.53 µM
9,NC(=O)CSc1nnc(NC(=O)c2ccc(S(=O)(=O)N3CCCCC3)cc2)s1,inactive
10,O=C1c2ccc(Br)cc2C(=O)N1c1ccc(Cl)cn1,"inconclusive: 26.9 µM [inhibitor, partial curve, poor fit]"
11,COc1cc(/C=C/c2ccc3cccc(O)c3n2)cc(Cl)c1OC,active: 2.69 µM
12,Cc1cc(C)n2nc(N)c(N=Nc3cccc(Cl)c3)c2n1,"inconclusive: 7.57 µM [inhibitor, full curve]"
13,O=C(Nc1ccc2c(c1)OCO2)N1CCN(c2ncccn2)CC1,"inconclusive: 30.1 µM [inhibitor, single point]"
14,COc1ccc(/C=N/NC(=O)c2c(C)n(C)c3ccc(OC)cc23)c(OC)c1,"inconclusive: 19 µM [inhibitor, partial curve, poor fit]"
15,O=C(OCc1nc2ccccc2[nH]1)C1CCCCC1,"inconclusive: 16.9 µM [inhibitor, partial curve]"
16,COc1cc(-c2nnc(SC/C=C/c3ccccc3)n2N)cc(OC)c1OC,"inconclusive: 37.9 µM [inhibitor, partial curve, poor fit]"
17,COC(=O)C1CCN(C(=O)COC(=O)Cc2c[nH]c3ccccc23)CC1,inactive
18,CCOC(=O)c1[nH]c2ccc(F)cc2c1NC(=O)CN1CCc2cc(OC)c(OC)cc2C1,inactive
19,CCOC(=O)C1(Cc2ccc(OC)cc2)CCN(C(=O)c2cc3ccccc3[nH]2)CC1,active: 15.1 µM
20,CN(C)c1ccc(/C=N/NC(=O)c2ccc(Cn3cc(Br)cn3)o2)cc1,active: 9.53 µM
21,Cc1csc(NC(=O)NCC2CCCC(CNC(=O)Nc3nc(C)cs3)C2)n1 (stereo unspecified),"inconclusive: 16.9 µM [inhibitor, partial curve]"
22,CCOC(=O)/C=C/[C@H]1CC2(CCO1)SCCCS2,"inconclusive: 12 µM [inhibitor, single point]"
23,COC(=O)c1ccccc1OCCCOc1ccc(C)cc1OC,"inconclusive: 26.9 µM [inhibitor, single point]"
24,Cc1ccc(OCC(=O)Nc2ccon2)c([N+](=O)[O-])c1,active: 8.49 µM
